The source of these data is PubChem BioAssay (NCI).

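Cultured in 96-well plates, cells were exposed to test compound for 48 hours across five concentrations. GI50 is the concentration that inhibits growth by half. The concentration for full growth arrest is given as TGI.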

The assay has as its system NCI-H322M lung. Nature of the assay: inhibition of tumour cell growth, NCI panel, 48 h.

With `CS(=O)(=O)Nc1cc(-c2ccc3ncc(C#N)c(NCc4ccccc4O)c3c2)cnc1Cl`, the GI50 was 1.03 µM and the TGI was 8.47 µM.
